Measurements published in the supplement of paper PMC10338343.
± gives the standard deviation. The entries are a selection whose mix differs from that of the whole data set.

tested on: MIWI (PIWIL1) piRISC loaded with L1MC piRNA (30 nt); assay: pre-steady-state target cleavage rate (min^-1); MIWI and MILI are mouse PIWI proteins and EfPiwi is from a freshwater sponge; tags in brackets are library labels; higher = faster piRNA-guided slicing of the target; conditions: guide: L1MC piRNA 5'p-UAACUAAAUACUAUGCAAGCUGUAGGUCCU; auxiliary factor: 500 nM mouse GTSF1
Outline: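 A burst-and-steady-state fit was used to obtain the pre-steady-state cleavage rate. The input data were sequencing reads of uncleaved targets, normalised to depth and to weakly complementary targets, from a […] transcribed, DNA-blocked target RNA library mixed with 1 nM active affinity-purified piRISC holding one synthetic guide, with or without 500 nM GTSF1 partner protein, in HEPES–potassium acetate buffer at 33 °C for 0–8 or 0–960 min. Three trials were pooled and k3 was capped at 0.0001 min^-1.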
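Further: 1 nM active piRISC with 0.1 nM target library at 33 °C single turnover.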

Sequence	pre-steady-state target cleavage rate
AGGACCUACAGCUUGCAUUCAAUUUAGUUA	0.228 ± 0.083
UCCUGGAUGUCCAAGCAUAGUAUUUAGUUA	0.011 ± 0.005
UCCACCUACACGAUGCAUAGUAUUUAGUAA	0.322 ± 0.029
AGGACCUACAGCUUGCAUUGUAUUUACAAA	0.128 ± 0.028
UCCUGGAUGAGCUUGCAUAGUAUUAAGAAA	0.0428 ± 0.014
UCCUGGAUGUCGAUGCAUAGUAUUUCAGUUA	0.0085 ± 0.0052
UCCUGGUACAGCAUGCAUAGUAUUUUCAAA	0.199 ± 0.048
UCCUGCUACAGCUUCCAUAGUAUUUUGUUA	0.0104 ± 0.0052
UGGACCUACAGCUUGCUAUGUAUUUAGAAA	0.0086 ± 0.0042
UCCUGCUACAGGUUCCAUAGUAUUUAGUUA	0.0205 ± 0.013
UCCUGGUACAGCUUGCAAUCUAUUUAGUAA	0.0223 ± 0.0096
UCCUGGUACAGCUUCCAAAGUAUUUAGUUA	0.312 ± 0.05
UCCUGGAUGACCUUGCAUAGUAUUAAGUUA	0.0362 ± 0.0085
UGGACCUACAGCUUGCAUUCUAUUUACAAA	0.0133 ± 0.006

same assay, conditions: guide: L1MC piRNA 5'p-UAACUAAAUACUAUGCAAGCUGUAGGUCCU; auxiliary factor: none (no GTSF1)

Sequence	pre-steady-state target cleavage rate
UGGACCAUCAGCUUGCAUAGUAUUUAGUUA	0.101 ± 0.019
UCGACCUACAGCUUGCAUAGUAUUAUAGUUA	0.0387 ± 0.007
UGGCCUACAGCUUGCAUAGUAUUUAGUUA	0.0761 ± 0.014
